Test results taken from paper PMC9574860, “Chemical Toolkit for PARK7: Potent, Selective, and High-Throughput” (Journal of Medicinal Chemistry, 2022).
Among all 7,900 compounds or so, about 400 (5.1%) showed an effect of 50% or more. The list shows a part of the results.

The compounds below were run against Parkinson's disease protein 7 (PARK7/DJ1) (human, UniProt Q99497) (assay: primary screen, percent inhibition; read as competition with a fluorescent probe by fluorescence polarization; higher = more effect of the substance). Conditions: 100 µM.
Parkinson's disease protein 7 (PARK7/DJ1), sequence (Q99497 whole entry, looked up, the tested form may be a part): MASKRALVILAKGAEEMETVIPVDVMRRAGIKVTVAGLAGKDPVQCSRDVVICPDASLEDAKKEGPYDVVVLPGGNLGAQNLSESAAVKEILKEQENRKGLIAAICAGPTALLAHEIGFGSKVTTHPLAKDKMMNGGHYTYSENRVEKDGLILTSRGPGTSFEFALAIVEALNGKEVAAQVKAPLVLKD
Procedure, shortened: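 Covalent fragments at 100 μM final were incubated 2 h with 0.2 μM PARK7, then 20 nM probe JYQ-107 added for a further 2 h. Fluorescence polarization read at 480/520 nm; relative FP loss versus reference controls gave remaining enzyme activity.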

| Compound | Inhibition % [%] |
| --- | --- |
| O=C(CCCl)N1CCc2ccccc2C1 | 8.5 |
| O=C(CCCl)Nc1cccc2ccccc12 | 5.12 |
| C=CC(=O)NCc1ccc2c(c1)C(=O)NCC2 | 29.5 |
| N#Cc1nc(-c2ccc(Cl)cc2)oc1NC1CC1 | 4.36 |
| CCc1ccc(OC)c(S(=O)(=O)n2cnc(C)c2)c1 | 5 |
| C=CC(=O)N1CCC(c2cccc(C(F)(F)F)c2)C1 (centres unmarked) | 10.4 |
| CC1(C)CC(NC2CCOC2=O)C(C)(C)O1 (centres unmarked) | 2.25 |
| CC1(C)OB(c2cccc3c2CCOC3)OC1(C)C | 4.59 |
| C=CCC(CO)Nc1ccc(C#N)nc1 (centres unmarked) | 6.02 |
| N#CC(=Cc1ccc(Cl)cc1)C(N)=O | 7.63 |
| C=CC(=O)Nc1cc(N)ccc1F | 32.2 |
| CCNc1nc(S)nc2ccccc12 | 5.07 |
| N#Cc1cc(N2CCNCC2)ccn1 | 6.56 |
| OB(O)c1cc(F)ccc1OCC1CCOCC1 | -0.184 |
| CC(NC(=O)Cn1cnc(C#N)n1)c1ccccc1 (centres unmarked) | 1.11 |
| CC1CC(N2CCn3c(nnc3C3CC3)C2)C(=O)O1 (centres unmarked) | 18 |
| O=C(CCc1ccc(S(=O)(=O)F)cc1)NC1CCCCNC1=O (centres unmarked) | 7.49 |
| C=CC(=O)N(Cc1cccc(C)n1)Cc1cccc(C)n1.O=C(O)C(F)(F)F | 8 |
| Cc1ccc(C=CS(=O)(=O)N2CCCC(C(N)=O)C2)cc1 (centres unmarked) | 8 |
| N#Cc1ncn(CC(=O)c2ccc(Cl)cc2)n1 | 2.43 |
| CNc1ccc(C#N)nc1 | 5.44 |
| CC(=O)NCc1ccc(S(=O)(=O)F)cc1 | 32.8 |
| Cc1nn(C)c(C)c1C1CCCN1C1CCOC1=O (centres unmarked) | 4.25 |
| C=CC(=O)NC1CCN(OC)CC1 | 11.7 |
| Cc1ccc(CCNc2ccc(C#N)nc2)cn1 | 2.57 |

| Compound | Inhibition % [%] |
| --- | --- |
| C=CC(=O)N[C@@H]1C[C@H]1C(C)C (racemic) | 6.51 |
| N#CSc1ccc(NC(=O)CCl)c(F)c1 | 72 |
| CC(C)(C)C1CCC2OC2C1 (centres unmarked) | 7.81 |
| C=CC(=O)NC(c1ncc(C)s1)C1CC1 (centres unmarked) | 8.08 |
| C=CC(=O)N1C[C@H]2CC=CC[C@H]2C1 | 8.62 |
| N#CN(CC(=O)N1CCOCC1)c1ccccc1 | 2.66 |
| N#CC(=Cc1ccccc1)C(=O)NCC1CCCO1 (centres unmarked) | 17.8 |
| NS(=O)(=O)c1ccc(Cl)c(NC(=O)CCl)c1 | 6.59 |
| C=CC(=O)N1CCC(Cn2cccn2)CC1 | 7.7 |
| O=C(NCc1ccc(Cl)cc1)n1ccnc1 | -1.68 |
| COC(=O)c1cc(Cl)ccc1B1OC(C)(C)C(C)(C)O1 | 9.49 |
| C=CC(=O)NCC1CC1(C)c1cccs1 (centres unmarked) | 8.95 |
| CC(=O)n1ncc2ccc(B3OC(C)(C)C(C)(C)O3)cc21 | 4.96 |
| CC(C)(C)C(=O)N1CCCN(c2ccc(C#N)nc2)CC1 | 13.1 |
| CC1C(=O)Nc2ccc(C(=O)CCl)cc21 (centres unmarked) | 85.9 |
| Cc1nc2c([nH]1)CCC(C(=O)NC1CC(C)(C)OC1=O)C2 (centres unmarked) | 8.26 |
| OB(O)c1ccc(OCC(F)(F)F)cc1F | 13 |
| COc1cc(S(=O)(=O)F)c(Cl)cc1C(=O)O | 97.8 |
| CC1(C)OB(c2cccc3c2CCNC3=O)OC1(C)C | 1.49 |
| Cc1cccc(C=C(C#N)C(=O)NC(C)C)c1 | 7.53 |
| CC(C)(C)C(=O)NCCNc1ccc(Cl)c(C#N)n1 | 4.61 |
| O=C(CCl)NCc1cccc(Oc2ccccc2)c1 | 22.5 |
| CC1(C)OB(c2ccc3c(c2)COCCN3)OC1(C)C | 6.15 |
| C=CC(=O)N1CCCC(n2ccc(C(=O)O)n2)C1 (centres unmarked) | 7.61 |
| C=CC(=O)N1CCC(c2ccccc2C(=O)O)CC1 | 9.27 |

| Compound | Inhibition % [%] |
| --- | --- |
| CCN(CCC#N)S(=O)(=O)C=Cc1ccc(C)cc1 | 23.8 |
| C=CC(=O)NC1(C(=O)NCc2cccs2)CCCCC1 | 3.88 |
| C=CC(=O)N1CCOC2(CCSC2)C1 (centres unmarked) | 2.15 |
| C=CC(=O)NC1CCc2cn[nH]c2C1 (centres unmarked) | 31.9 |
| COc1ccc(F)cc1C(C)NC(=O)c1cccnc1S (centres unmarked) | 4.7 |
| C=CC(=O)NC(C)c1ccc(C(F)(F)F)nc1Cl (centres unmarked) | 3.35 |
| C=CC(=O)N1CCSC2CCC21 (centres unmarked) | 7.7 |
| Cc1cc(-n2c(C)cc(C(=O)CCl)c2C)no1 | 7.75 |
| NS(=O)(=O)c1ccc2c(c1)CCN2C(=O)CCl | 83.1 |
| Cc1nc(C#N)n(CC(=O)C(C)(C)C)c1C | 2.87 |
| O=S(=O)(c1ccc(Cl)cc1Cl)n1cccn1 | 1.46 |
| COC(=O)c1cccnc1C#N | 10.3 |
| O=C(O)c1cc(S(=O)(=O)F)cs1 | 90 |
| N#C[C@@H]1C[C@H]2C[C@@H]1[C@@H]1O[C@H]21 (racemic) | 7.91 |
| Fc1ccccc1OCC1CO1 (centres unmarked) | 54.7 |
| CN(C(=O)n1ccnc1)C1CCc2ccccc21 (centres unmarked) | 23.2 |
| C=CC(=O)NC(C)c1cc2cccc(F)c2o1 (centres unmarked) | 6.94 |
| N#Cc1ncn(CCOc2ccccc2Cl)n1 | 8.15 |
| Cc1cc(C)n(S(=O)(=O)c2ccc3oc(=O)ccc3c2)n1 | 0.108 |
| COc1ccc(NC(=O)CCl)c([N+](=O)[O-])c1 | 10.4 |
| Cc1ccc(CN2CCCN(C(=O)CCl)CC2)cc1.Cl | 13 |
| C=CC(=O)N(C)CC(=O)N[C@H]1CCCOC1 | 7.23 |
| O=c1oc(-c2ccccc2)nn1CN1CCOCC1 | 5.66 |
| C=CC(=O)NCC1CCOc2ccccc21 (centres unmarked) | 7.27 |
| N#Cc1ncn(CC(=O)NC(c2ccccc2)C2CC2)n1 (centres unmarked) | 6.98 |

| Compound | Inhibition % [%] |
| --- | --- |
| COc1cc(C=C(C#N)C(N)=O)ccc1OC(C)C | 4.85 |
| COc1cc(C#N)ccc1OCCCl | 2.58 |
| CC1CCN(C(=O)CN2CCSC2=O)c2ccccc21 (centres unmarked) | 9.18 |
| O=S(=O)(F)c1ccc(C(F)(F)F)nn1 | 8.52 |
| C=CC(=O)N(C)C[C@@H]1C[C@H](F)CN1Cc1nccn1C | -2.15 |
| C=CC(=O)N1CCC[C@@H]2COC[C@@H]21 (racemic) | 0.0503 |
| COCC(C)NS(=O)(=O)C=Cc1ccc(Cl)cc1 (centres unmarked) | 13.7 |
| C=CC(=O)N1CCN(c2nc(C)cs2)CC1 | 9.68 |
| C=CC(=O)N1CCC(n2ncc(C(=O)O)c2C)CC1 | 7.23 |
| C=CC(=O)N1CCN(CCC#N)CC1 | 5.55 |
| C=CS(=O)(=O)c1nc2ccccc2s1 | 6.17 |
| C=CC(=O)NCCN1CCNC(=O)C1 | 7.56 |
| C=CC(=O)N1CCCc2cc(Cl)ccc21 | 3.06 |
| O=C(O)c1cccc(NS(=O)(=O)C=Cc2ccccc2)c1 | -0.0382 |
| O=c1[nH]c(C(Cl)=Cc2cccnc2)nc2ccccc12 | 34.8 |
| O=C(c1cccs1)N1CCCCC1CCS(=O)(=O)F (centres unmarked) | 84.1 |
| OC1=NC(=S)N=C(O)C1=Cc1ccco1 | 24.5 |
| Cl.Nc1cccc2cc(S(=O)(=O)F)ccc12 | 65.6 |
| COc1ccc(C(C)(C)C)cc1S(=O)(=O)n1ccnc1 | 9.55 |
| COc1cccc(NC(=O)CCl)c1 | 19.1 |
| CN(C)C=C(C#N)Sc1ccc(F)cc1 | 36.5 |
| COc1ccccc1N1CCN(C2CCOC2=O)CC1 (centres unmarked) | 9.47 |
| Cl.O=C(O)C1CCN(C(=O)C=Cc2ccc(Cl)cc2)C1 (centres unmarked) | 15.8 |
| COc1cccc(N2C(=O)CN=C2S)c1 | 1.97 |
| CS(=O)(=O)OC1CCNCC1.Cl | 3.92 |

| Compound | Inhibition % [%] |
| --- | --- |
| Cn1ccc(C(=O)CCl)c1 | 49 |
| C=CC(=O)N1CCN(C(=O)N(C)C)CC1 | -1.57 |
| C=CCCOc1cncc(B2OC(C)(C)C(C)(C)O2)c1 | 4.96 |
| C=CC(=O)N1C2CCC1c1ncccc12 (centres unmarked) | 9.83 |
| N#Cc1ccccc1OS(=O)(=O)c1ccc(Cl)nc1 | 9.18 |
| Cc1noc(C)c1C=CC(=O)N1CCc2ccccc21 | 11.3 |
| O=C(CCl)NNC(=O)Cc1ccccc1F | 5.05 |
| O=C(c1cccnc1S)N1CCC2OCCCC2C1 (centres unmarked) | 12.3 |
| CN1CCN(c2ccc(C#N)nc2)Cc2ccccc21 | 6.75 |
| C=CC(=O)Nc1c2c(nn1C(C)C)CCC2 | 5.86 |
| C=CC(=O)N1CCC(N(C)C(=O)N(C)C)C1 (centres unmarked) | 28.7 |
| C=CCn1c(S)nc2ccsc2c1=O | 13.1 |
| Cc1noc(C)c1Cn1c(-c2ccccc2)noc1=O | 14.3 |
| O=C(Oc1cccc(Cl)c1)N1CCOCC1 | 4.2 |
| CCOc1ccc(NC(=O)CCl)c([N+](=O)[O-])c1 | 14.4 |
| COC(=O)c1cc(B2OC(C)(C)C(C)(C)O2)c(C)cn1 | 4.59 |
| CN1C(=O)SC(CC(=O)O)C1=O (centres unmarked) | 11.7 |
| C=CC(=O)N1CCOc2ccccc2C1 | 7.25 |
| CC1CN(C)CCN1C(=O)C=Cc1nc2ccccc2o1 (centres unmarked) | 27.3 |
| N#Cc1ncn(Cc2ccccc2C(F)(F)F)n1 | 0.629 |
| Cc1cc(C)c(C(=O)O)c(S)n1 | 12.8 |
| O=C(CCl)NC1CCS(=O)(=O)C1 (centres unmarked) | 6.48 |
